The supplement of paper PMC12632987
Over roughly 2,300 sequences, “median log2 fold change of GCK-ALFA target abundance (FLAG IP / Myc IP barcode read proportion)” has its median near 0.095; the lowest 2% begin near -0.47. This is one part of the list.

B1: LC3A_28_1243 (protein)
chain: SAVEEQIAAARAAVKAAVAAGEEALVELKVTGETTQEDVDKIIAAMKEIAELGKDLPALDIIIDVDKDVPQEHIDKLADAAEEIEKKYPNVTVIIALEER
B2: LC3A_28_905 (protein)
chain: GSSLEEAKKALERVKAAVAAGSQEPLVLEITAPSNQEDVEEFLKLLEELAKEASKLKGVSIIIDIDESVSQENRDKIIDKADELEKKYPNVTVIIALPES
B3: LC3A_28_662 (protein)
chain: SAVDERLAAALAEAEAARAAGEPTVVTVEVPGDADEEDIERIIEALERIAKILAPIKGSAIIIDIDGDLDEEHRDRLIDKAEELEEKYPNVTVIIAEEER
B4: LC3A_132_299 (protein)
chain: QEEKAEEILKKVKELVEEAKANIDDDEKVKKLLEEIEKLIEEAEKELSPELLAEVMKEVAELLDELSQYFLEKGKEELSMLADGLAIEAESLALRAEKKI
B5: LC3A_61_2039 (protein)
chain: EVKEVEWAIPPEEAERANKAFQELLEFAREVDEELAEKLYELVKDNAESESSARYALKVLERAVEELRKAKEEGKPKEELLKIIEDTIDELALIPLDDLK
B6: LC3A_28_816 (protein)
chain: MKKEEIIAEIREQAEKALDSDEDALIEVKISGTITKEEAKEIMEVVREEAKRLAEKRKVYIVIDFEEPVDQEVLDLILDKAEEIEEEIEGVDVIVALPET
B7: LC3A_141_370 (protein)
chain: KTVTFTKTFTNSSLDEVIAGMEELEKEVLAAHEKLGGGKVKVTVTVTIKNSKTGETKVIKEEFEADKETLEMIMEGVLIEAASARLTENANITVTVTLEA
B8: LC3A_28_1128 (protein)
chain: SETDKIIAEIEKQAEEAIEKGEDALIEVTITENITLEDAKRIAEKIEKEAKRLSEKGKVSIVVSFSSESNAEQIDFFGEKAEEIEKKYPNVSVIIALPER
B9: LC3A_28_806 (protein)
chain: SPVRENVEKAEKEALEQIEKGEPVFVEITLPADATQEEIDYVTESIRRLAKKAKEAGIKSLSVVVDSANNQEAITAISETEDELRKEGLPINVIIALDEP
B10: LC3A_141_369 (protein)
chain: KTVTLKLELKNSSLDEVIEKMEELEEEVLKAYEELGGGKVKVTVTLTFKNSKTGETTVIKEEFEADKEELEMLLEGVLIEAASYRLTENADITVTVTLEA
B11: LC3A_free_39_2176 (protein)
chain: SAAALEEAKAELLALAAEEGEETLKIAKEILELIEGNLELVELLVEGLKKIREEGGDVRAALEEILKEIKRLKEEGKSMEEILERVKEILEDFLNLIPLD
B12: LC3A_6_2068 (protein)
chain: VRVEVTIDVLLPEENEEEATKKAVKIAEEGIKALEEELKAKGLLGDYFEVKIEVEPGFVKVVVEMEVKEEAVPLVEKMAGEMADELSKVAKAVMLSIEVE
B13: LC3A_free_8_2515 (protein)
chain: MNQEFANKATEILEELEEKLVELLKEKGASELDILEAELLIGSAIAEVISLSDKSPEEILKAIRESLEELVEELEEHREEVKELAEEALKKIEEKKKELE
B14: LC3A_28_736 (protein)
chain: SEIDENIEKALEEAKKAAEKGEPVVITIKVPGTATQEDIEKVIETLKEIAEILKDVKDQTIIIDIEGGVPQEHIDKLLDAGEEIEEKYPNITVIFALDEE
B15: LC3A_28_734 (protein)
chain: SELDKNLEEALKKAKEAAAKGEPVVITITVPGTATEEDIEKVIEAMYEIAEILKDVKDQTIIVDIEGGVKQEHIDKLLDAGEEIEKKYPNVTVIFALDED
B16: LC3A_28_1008 (protein)
chain: MSVVEKTKEEAKKALEEAKKGKDAYLEIEITKETTLEEVKEINEIIEKTAKEISKIPNVKLYIVVLDDSNQENHDIMADAMDKIEAEYPNVSSIIAYTDD
B17: LC3A_3_1770 (protein)
chain: MEEFIEEVKKKLREEGADEELIEKAARALELLLERGLEETAKEVAEALLELVKKSKELALELAEDVLELLETSDLSPEELAKAVRELIRLALLESEIEEL
B18: LC3A_28_1198 (protein)
chain: SAAEETIAAIKKQAAAALAEGDGTVIEVKITKEMTEEDIDKIIATIKEEAAKLADVPAVSIVIDVEAGVPQENITKLANTGDEIEAAYPNITVIIALDED
B19: LC3A_127_167 (protein)
chain: KKEELLREAEKAVDELLKLLRDPNATLEEIRAQAEKLLELAKELLKEDPSAKPILEDAESLLETVKKLEKAPEEEKEELREHAEMIAEGILIEVLSLELK
B20: LC3A_55_2009 (protein)
chain: MKVDIVLDVDEKTGEITGLEVYVDDAEPAILAALRAAGKELAAELFERAVAAPLGPEEMAALRARYGAEAVKAAVDALIETVRATPGVDLNVIEALNDTS
B21: LC3A_free_46_2360 (protein)
chain: AEIDISFLLKGKTEEEAKEFAEELEKRFREAAAAAGADIKIETKIEKDEEGDIFIDVKLTVTAANAAQRQAAVQAILDIVDELSKEKNIAAIVSVEDVAP
B22: LC3A_free_8_2523 (protein)
chain: ASQAFADAAVKILDELEEKLVKLLKEKGASRLDILEAELLVGSIIAEVISLVDESIEAILKSIKEGLEELVEELEEHKEEVTKLANEALKKIEEKAKELK
B23: LC3A_3_1621 (protein)
chain: LEEEVERALELLKEAGASEETLEAFRETAELLLEKGYEEALKTLIEEMEEIKDLPDEIILDALEEIKEVVETEDLDEEELIEEIKEIFNTARSESEIIEL
B24: LC3A_132_306 (protein)
chain: GEELAKELIETAKKALELAKTDPDAKEEILELLKKIEELMKKLAKEASPELAAEAFEEVMDIMLELSRVAAAQGWDEVADEAFALAAEAAQKKAEAEAKL
B25: LC3A_3_1705 (protein)
chain: MEELLKEARKVLEEHGKSEETIKAALEALKALLERGFEEAAKTFLELLKESENLSDEILLWMFEDVKKVVADPTKTEEEVIAAIKEIWNIAKNDEEIEEL
B26: LC3A_141_380 (protein)
chain: KTETKTKTFKNLPADEAEEKGIAYLEETFAEAKAAGAKTVTITITVTATVDGKTYTRTETFSGDVTNEMILGGAEVFLGLVALQFEGHKLTVTVTVTLTY
B27: LC3A_147_486 (protein)
chain: MKVIIDVLVKTKETVEKLKKRMEETKKKLEEKGIEVKLEIKVEEIEPGVYYVEITAEIKAKTKEEEQKAAQEVVDTVLDFEEENKDLVLGTLISIEETEE
B28: LC3A_147_404 (protein)
chain: VLAEIDIDILTKKGPELVEKLVEEIRERLEEMGVEVEIELKTEKIDEDTYFHEIKIKLRAETKEEAEEAVNEVLDIIDEFEEKNKDEILGSLISVEIKEE
B29: LC3A_147_466 (protein)
chain: YKVELTIDVLAKEKYEEALELLKEFAEKVKELGLDVKVKIREEKISENEVYLELEVEIETETLEEAEEAAKKVSELADELSEKLEELGAAVMISIDIEEA

The binders below were run against MAP1LC3A, Q9H492 (assay: median log2 fold change of GCK-ALFA target abundance (FLAG IP / Myc IP barcode read proportion) (log2 ratio); each designed protein is fused to an ALFA-tag nanobody in HEK293 cells to bring the named protein to FLAG-tagged glucokinase (GCK); Myc marks an untargeted standard; higher = target protein stabilised (more abundant)). Settings: target protein: 3xFLAG-MCP-GCK-ALFA reporter; HEK293 landing pad (RPLP).
In short: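 HEK293 landing-pad cells received a recombined binder library fused to the ALFA nanobody and were induced with 2 μg mL^−1 doxycycline, then transfected with a plasmid encoding a FLAG-tagged target and a Myc-tagged standard. Lysates were collected after 48 h for anti-FLAG and anti-Myc immunoprecipitation, and the circular RNA barcodes were reverse transcribed, amplified and sequenced. Target abundance for each binder is the median log2 ratio of FLAG to Myc barcode read proportions. Barcodes had to reach a proportion of at least 10^−7 in both replicates, each binder needed at least 3 barcodes per replicate, a pseudocount of 10^−6 was applied, and the two replicates were pooled.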
With B1 the “median log2 fold change” value was 0.0677.
B2 was tested, and the “median log2 fold change” value was -0.141.
In the case of B3, the “median log2 fold change” value is reported as -0.324.
In the case of B4, the “median log2 fold change” value is reported as 0.229.
For B5, the “median log2 fold change” value was 0.267.
For B6, the “median log2 fold change” value was -0.0051.
For B7, the “median log2 fold change” value was -0.474.
In the case of B8, the “median log2 fold change” value is reported as 0.226.
B9 was tested, and the “median log2 fold change” value was -0.339.
In the case of B10, the “median log2 fold change” value is reported as -0.618.
B11 was tested, and the “median log2 fold change” value was 0.19.
B12 was tested, and the “median log2 fold change” value was 0.184.
With B13 the “median log2 fold change” value was 0.159.
For B14, the “median log2 fold change” value was -0.121.
In the case of B15, the “median log2 fold change” value is reported as -0.00474.
For B16, the “median log2 fold change” value was -0.306.
With B17 the “median log2 fold change” value was 0.189.
With B18 the “median log2 fold change” value was 0.149.
In the case of B19, the “median log2 fold change” value is reported as 0.172.
In the case of B20, the “median log2 fold change” value is reported as 0.282.
For B21, the “median log2 fold change” value was 0.146.
In the case of B22, the “median log2 fold change” value is reported as -0.0394.
In the case of B23, the “median log2 fold change” value is reported as -0.465.
With B24 the “median log2 fold change” value was 0.0777.
For B25, the “median log2 fold change” value was 0.202.
B26 was tested, and the “median log2 fold change” value was -0.241.
For B27, the “median log2 fold change” value was -0.298.
B28 was tested, and the “median log2 fold change” value was -0.269.
In the case of B29, the “median log2 fold change” value is reported as 0.065.
